# Data reported in PubChem BioAssay (Tox21).
# “And” between values parts separate entries of the source, which are not always exact repeats. Equal entries are not always repeated. Inconclusive results, whose numbers are uncertain, are shown with a selection of clear calls. Potencies of inconclusive entries are doubtful fits and often do not repeat. Where a structure was tested more than once in an assay, its records may differ in their call. The source made the active and inactive calls. The call rests on the fitted dose curve; in most records, active means well fitted curve in the direction sought with a large enough effect in the repeat runs; inconclusive means weak or mixed curves; inactive means no such curve, though single readings can be large; an effect the other way counts as inactive or inconclusive.
# What was measured:
# [1] = qHTS RealTime-Glo MT Cell Viability Assay in HEK293 cells - 8 hour (AID 1224887); further: nearly all actives have a fitted effect of over 50% in size
# In short: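 HEK293 cells mixed with RealTime-Glo reagents (NanoLuc plus cell-permeant prosubstrate) at 600 cells/well, preincubated 5 h at 37 C/5% CO2, then given 23 nL compound in DMSO. Nonlytic luminescence from viable cells was read at 0, 8, 16, 24, 32 and 40 h.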
# [2] = A CellTox Green Cytotoxicity Assay to monitor cytotoxicity in HEK293 cells - 16 hour (AID 1224888); further: nearly all actives have a fitted effect of over 35% in size
# In short: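 HEK293 cells premixed with CellTox Green dye were seeded at 600 cells/well and left 5 h at 37 C/5% CO2 before pin transfer of 23 nL compound in DMSO. Fluorescence from dye bound to dead-cell DNA was read during 40 h treatment.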
# [3] = qHTS RealTime-Glo MT Cell Viability Assay in HEK293 cells - 24 hour (AID 1224886); further: nearly all actives have a fitted effect of over 50% in size
# In short: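 Quantitative high-throughput screen of the Tox21 10K library in HEK293: cells and RealTime-Glo reagents plated together, compound added at 5 h, luminescence monitored through 40 h at 37 C.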
# [4] = qHTS RealTime-Glo MT Cell Viability Assay in HepG2 cells - 0 hour (AID 1224889); further: nearly all actives have a fitted effect of over 50% in size
# In short: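 Compound treatment began 5 h after plating HepG2 cells (600/well) with NanoLuc luciferase and prosubstrate. Plates stayed at 37 C for 40 h; luminescence was captured at six time points, 0 h through 40 h.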
# [5] = A CellTox Green Cytotoxicity Assay to monitor cytotoxicity in HepG2 cells - 8 hour (AID 1224890); further: nearly all actives have a fitted effect of over 45% in size
# In short: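 HepG2 cells were seeded together with the CellTox Green dye at 600 cells/well, left 5 h at 37 C/5% CO2, then given compounds in DMSO. Fluorescence from dye bound to dead-cell DNA was read repeatedly over 40 h of treatment at 37 C.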
# [6] = qHTS assay to identify small molecule antagonists of the estrogen receptor alpha (ER-alpha) signaling pathway using the BG1 cell line in the presence of 0.1 nM 17-beta-estradiol - cell viability counter screen (AID 1259241); further: nearly all actives have a fitted effect of over 40% in size
# In short: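 Live-cell protease activity (CellTiter-Fluor fluorescence, 30 min) was read in the same wells after VM7Luc4E2 cells had been exposed to compounds with 0.1 nM 17beta-estradiol for 22 hr at 37C.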
# Potency means the concentration at half of the fitted maximal effect; tags describe the fitted curve by direction and shape.
structure (smiles),measurement,setting,value
CCCCNS(=O)(=O)c1ccccc1,Potency,[1],"inconclusive: 19.5 µM [cytotoxic, partial curve]"
OC1(c2ccc(Cl)c(C(F)(F)F)c2)CCN(CCCC(c2ccc(F)cc2)c2ccc(F)cc2)CC1,Potency,[1],active: 19 µM
same,Potency,[2],active: 23.9 µM
CC(O)CO (centres undefined),Potency,[3],inactive
same,Potency,[4],"inconclusive: 0.195 µM [cytotoxic, single point]"
c1ccc2n[nH]nc2c1,Potency,[3],inactive
same,Potency,[2],"inconclusive: 12 µM [activator, single point]"
CN(C)CCOc1ccc(/C(=C(/CCCl)c2ccccc2)c2ccccc2)cc1,Potency,[1],active: 40.9 µM
O=C(CCCCCCCCc1cccnc1)N1CCC(C=C(c2ccccc2)c2ccccc2)CC1,Potency,[1],active: 21.9 µM
CC1=C(/C=C/C(C)=C/C=C/C(C)=C\C=O)C(C)(C)CCC1,Potency,[3],"inconclusive: 36.8 µM [cytotoxic, partial curve]"
same,Potency,[2],"inconclusive: 58.4 µM [activator, single point]"
CC(=O)O[C@]1(C(C)=O)CC[C@H]2[C@@H]3C[C@H](C)C4=CC(=O)CC[C@]4(C)[C@H]3CC[C@@]21C,Potency,[3],"inconclusive: 21.3 µM [cytotoxic, partial curve]"
same,Potency,[1],"inconclusive: 19.5 µM [cytotoxic, full curve]"
same,Potency,[4],active: 174 nM and active: 301 nM
same,Potency,[5],"inconclusive: 67.4 nM [activator, partial curve]"
C=C1C[C@H]2[C@@H]3C=C(C)C4=CC(=O)CC[C@]4(C)[C@H]3CC[C@]2(C)[C@@]1(OC(C)=O)C(C)=O,Potency,[3],"inconclusive: 14.1 µM [cytotoxic, partial curve] and inconclusive: 19 µM [cytotoxic, partial curve]"
same,Potency,[1],"inconclusive: 21.3 µM [cytotoxic, partial curve, poor fit]"
same,Potency,[4],active: 1.41 µM and active: 6.01 µM
CN(C)CCC=C1c2ccccc2CCc2ccccc21,Potency,[3],"inconclusive: 61.7 µM [cytotoxic, single point]"
same,Potency,[2],"inconclusive: 55 µM [activator, single point]"
same,Potency,[5],"inconclusive: 54900 nM [activator, partial curve, poor fit]"
same,Potency,[6],inconclusive: 68.6 µM [cytotoxic]
CCN(CC)c1ccc2c(C)cc(=O)oc2c1,Potency,[3],"inconclusive: 38.9 µM [cytotoxic, partial curve]"
same,Potency,[1],"inconclusive: 44 µM [cytotoxic, partial curve]"
same,Potency,[4],"inconclusive: 62.2 µM [cytotoxic, partial curve, poor fit]"
CCCCCCCCCCCCCC[P+](CCCC)(CCCC)CCCC,Potency,[3],active: 387 nM and active: 616 nM
same,Potency,[1],active: 24.4 µM and active: 19.5 µM
same,Potency,[5],active: 24.4 µM and active: 19.5 µM
CSc1c(Cl)c(Cl)c(Cl)c(Cl)c1Cl,Potency,[1],"inconclusive: 48.7 µM [cytotoxic, single point]"
same,Potency,[2],inactive
CCCCCCCOC(=O)c1ccc(O)cc1,Potency,[1],active: 21.9 µM
Nc1cc(Cl)c([N+](=O)[O-])cc1O,Potency,[3],"inconclusive: 17.2 µM [cytotoxic, partial curve]"
same,Potency,[1],"inconclusive: 12.2 µM [cytotoxic, partial curve]"
same,Potency,[6],"inconclusive: 0.606 µM [cytotoxic, single point]"
O=C1CN(/N=C/c2ccc([N+](=O)[O-])o2)C(=O)N1,Potency,[3],"inconclusive: 43.5 µM [cytotoxic, partial curve]"
same,Potency,[4],"inconclusive: 48.8 µM [cytotoxic, partial curve, poor fit]"
same,Potency,[6],"inconclusive: 54.3 µM [cytotoxic, partial curve] and inconclusive: 68.6 µM [cytotoxic, single point] and inconclusive: 26.6 µM [cytotoxic, partial curve]"
CCCCCCCCCCCCN,Potency,[3],inactive and active: 38.9 µM
same,Potency,[4],"inconclusive: 19.5 µM [rising, partial curve]"
same,Potency,[5],inactive and active: 24.5 µM
O=C1c2c(O)ccc(O)c2C(=O)c2c(NCCNCCO)ccc(NCCNCCO)c21,Potency,[3],active: 0.0601 µM
same,Potency,[1],"inconclusive: 3.01 µM [cytotoxic, partial curve]"
same,Potency,[2],inactive
same,Potency,[6],"inconclusive: 11.9 µM [cytotoxic, partial curve]"
